{"source": "paper PMC4336329", "about": "(PLoS ONE, 2015)", "note": "Among all 310,000 compounds or so, about 14,000 (4.5%) showed an effect of 50% or more. The effect is printed as a negative number. The list shows a part of the results.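 Also: peak tail current of the secondary pulse compared with the same well before compound.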"}
{"molecular_target": "human ether-à-go-go-related gene (hERG) potassium channel (human, UniProt Q12809)", "sequence (Q12809 whole entry, looked up)": "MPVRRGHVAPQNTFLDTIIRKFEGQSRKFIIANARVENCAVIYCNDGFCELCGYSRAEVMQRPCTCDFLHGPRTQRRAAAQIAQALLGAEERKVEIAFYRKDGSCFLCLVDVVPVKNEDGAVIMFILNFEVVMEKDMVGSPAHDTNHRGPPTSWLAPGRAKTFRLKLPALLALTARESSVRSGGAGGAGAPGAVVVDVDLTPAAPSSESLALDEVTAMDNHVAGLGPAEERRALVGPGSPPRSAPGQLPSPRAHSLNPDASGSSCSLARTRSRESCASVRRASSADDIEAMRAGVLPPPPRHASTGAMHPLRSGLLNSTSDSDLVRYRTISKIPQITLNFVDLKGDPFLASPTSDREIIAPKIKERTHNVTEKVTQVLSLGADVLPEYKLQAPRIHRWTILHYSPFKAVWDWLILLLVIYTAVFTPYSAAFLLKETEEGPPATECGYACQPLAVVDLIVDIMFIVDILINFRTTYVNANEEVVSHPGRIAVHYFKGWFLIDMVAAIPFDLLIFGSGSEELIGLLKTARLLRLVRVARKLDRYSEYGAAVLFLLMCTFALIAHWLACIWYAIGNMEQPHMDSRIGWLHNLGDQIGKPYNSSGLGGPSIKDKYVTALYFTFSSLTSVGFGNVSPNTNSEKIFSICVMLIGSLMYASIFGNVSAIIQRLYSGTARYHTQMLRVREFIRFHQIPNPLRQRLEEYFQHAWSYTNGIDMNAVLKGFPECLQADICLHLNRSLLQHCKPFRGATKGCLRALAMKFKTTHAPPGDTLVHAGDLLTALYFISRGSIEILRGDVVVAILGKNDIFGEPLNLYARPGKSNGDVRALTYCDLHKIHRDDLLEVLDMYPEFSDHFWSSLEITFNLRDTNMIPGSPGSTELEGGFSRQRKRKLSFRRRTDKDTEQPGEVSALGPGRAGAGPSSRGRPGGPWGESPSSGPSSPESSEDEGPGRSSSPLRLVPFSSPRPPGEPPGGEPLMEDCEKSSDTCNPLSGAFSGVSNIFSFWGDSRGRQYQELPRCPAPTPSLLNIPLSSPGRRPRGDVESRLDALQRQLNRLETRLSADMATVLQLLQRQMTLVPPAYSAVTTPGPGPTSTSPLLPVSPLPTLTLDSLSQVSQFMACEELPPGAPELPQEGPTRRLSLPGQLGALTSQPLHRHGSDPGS", "test": "primary screen, population patch clamp on CHO cells stably expressing hERG", "units": {"hERG current change (%, negative = inhibition) at 10uM": "%"}}
{"smiles": "COC(=O)C1=C(C(=O)c2ccccc2)C(c2ccc(OC)c(OC)c2)Nc2nnnn21", "note": "(stereo not drawn)", "hERG current change (%, negative = inhibition) at 10uM": 11.6}
{"smiles": "Cc1csc(NC(=O)c2cc3c(s2)-c2ccccc2OC3)n1", "hERG current change (%, negative = inhibition) at 10uM": 3.36}
{"smiles": "C/C(CC(=O)Nc1ccc(N(C)C)cc1)=N\\NC(=O)c1ccncc1", "hERG current change (%, negative = inhibition) at 10uM": 7.2}
{"smiles": "O=C(O)CCc1ccc(-c2cccs2)n1Cc1ccco1", "hERG current change (%, negative = inhibition) at 10uM": -12.4}
{"smiles": "O=C1Nc2ccc(Br)cc2C12OCCO2", "hERG current change (%, negative = inhibition) at 10uM": 15.9}
{"smiles": "O=C(NCc1ccco1)c1nc2c(nnn2Cc2ccccc2Cl)c(=O)[nH]1", "hERG current change (%, negative = inhibition) at 10uM": -0.774}
{"smiles": "c1ccc(C2C3=C(CCCC3)Nc3ncnn32)cc1", "note": "(stereo not drawn)", "hERG current change (%, negative = inhibition) at 10uM": 0.709}
{"smiles": "COc1ccc(Cc2nc3ccc(C(=O)N(C)C(C)c4ccon4)cc3o2)cc1", "note": "(stereo not drawn)", "hERG current change (%, negative = inhibition) at 10uM": -3.64}
{"smiles": "CC(=NCc1cccnc1)c1c(O)n(-c2ccccc2)c(=O)[nH]c1=O", "hERG current change (%, negative = inhibition) at 10uM": 21}
{"smiles": "C=CCNc1nnc(SC2CC(=O)N(c3ccc(OCCC)cc3)C2=O)s1", "note": "(stereo not drawn)", "hERG current change (%, negative = inhibition) at 10uM": -3.86}
{"smiles": "Cn1cc(S(=O)(=O)N2CCOCC2)cc1C(=O)Nc1cccc(Cl)c1", "hERG current change (%, negative = inhibition) at 10uM": -10.4}
{"smiles": "Cc1ccc(-n2ncc3c(=O)n(CC(=O)N4CCN(c5ccccc5)CC4)cnc32)cc1C", "hERG current change (%, negative = inhibition) at 10uM": -2.49}
{"smiles": "COc1ccc(-c2nc(-c3ccccc3)c(-c3cc([N+](=O)[O-])ccc3C)[nH]2)cc1OC", "hERG current change (%, negative = inhibition) at 10uM": 11.6}
{"smiles": "CN(C)C(=O)N1CCC(C(=O)N2CCCC(C(=O)c3cccc4ccccc34)C2)CC1", "note": "(stereo not drawn)", "hERG current change (%, negative = inhibition) at 10uM": -33.8}
{"smiles": "O=C(O)CC/C(=N\\Nc1ccccc1[N+](=O)[O-])c1cccs1", "hERG current change (%, negative = inhibition) at 10uM": -2.88}
{"smiles": "Cc1ccsc1C(=O)NNC(=O)COc1ccccc1Cl", "hERG current change (%, negative = inhibition) at 10uM": 16.9}
{"smiles": "CC(NC(=O)NC12CC3CC(CC(C3)C1)C2)C1CCCO1", "note": "(stereo not drawn)", "hERG current change (%, negative = inhibition) at 10uM": 1.07}
{"smiles": "Cc1cc2nc(-c3cc(N4CCOCC4)ccc3[N+](=O)[O-])ccn2n1", "hERG current change (%, negative = inhibition) at 10uM": -35.3}
{"smiles": "CCOC(=O)/C(C#N)=C1/C=CNC(=O)N1", "hERG current change (%, negative = inhibition) at 10uM": 0.932}
{"smiles": "C=C(C)C1CC=C(C)/C(=N/NC(=O)CNc2ccc(C)cc2C)C1", "note": "(stereo not drawn)", "hERG current change (%, negative = inhibition) at 10uM": 26.4}
{"smiles": "C[C@@]12CCC3[C@@](CCC4[C@@]3(C)CCC[C@@]4(C)C(=O)Nc3ccc(Cl)cc3)(CC1=O)C2", "note": "(stereo partly drawn)", "hERG current change (%, negative = inhibition) at 10uM": -1.89}
{"smiles": "O=C(Nc1nccs1)c1ccc(NC(=O)C2CC=CCC2C(=O)O)cc1", "note": "(stereo not drawn)", "hERG current change (%, negative = inhibition) at 10uM": 25.3}
{"smiles": "Cc1ccc(N(C(=O)c2sc(C)nc2C)C(C(=O)NCc2ccco2)c2ccccc2)cc1", "note": "(stereo not drawn)", "hERG current change (%, negative = inhibition) at 10uM": -15}
{"smiles": "Clc1ccc2oc(-c3ccccn3)nc2c1", "hERG current change (%, negative = inhibition) at 10uM": -0.352}
